Structures are written as SMILES. The whole screen tested about 310,000 compounds, of which about 14,000 (4.5%) showed an effect of 50% or more. Effects have a minus sign here. This is one part of the list. Where a SMILES comes first, the peptide text is derived from it. The star is where a group is joined. Boc = CC(C)(C)OC(=O)*
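Further: peak tail current of the secondary pulse compared with the same well before compound.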

For this experiment, the target named is human ether-à-go-go-related gene (hERG) potassium channel (human, UniProt Q12809). Nature of the experiment: primary screen, population patch clamp on CHO cells stably expressing hERG.
Chain of human ether-à-go-go-related gene (hERG) potassium channel (Q12809 whole entry, looked up): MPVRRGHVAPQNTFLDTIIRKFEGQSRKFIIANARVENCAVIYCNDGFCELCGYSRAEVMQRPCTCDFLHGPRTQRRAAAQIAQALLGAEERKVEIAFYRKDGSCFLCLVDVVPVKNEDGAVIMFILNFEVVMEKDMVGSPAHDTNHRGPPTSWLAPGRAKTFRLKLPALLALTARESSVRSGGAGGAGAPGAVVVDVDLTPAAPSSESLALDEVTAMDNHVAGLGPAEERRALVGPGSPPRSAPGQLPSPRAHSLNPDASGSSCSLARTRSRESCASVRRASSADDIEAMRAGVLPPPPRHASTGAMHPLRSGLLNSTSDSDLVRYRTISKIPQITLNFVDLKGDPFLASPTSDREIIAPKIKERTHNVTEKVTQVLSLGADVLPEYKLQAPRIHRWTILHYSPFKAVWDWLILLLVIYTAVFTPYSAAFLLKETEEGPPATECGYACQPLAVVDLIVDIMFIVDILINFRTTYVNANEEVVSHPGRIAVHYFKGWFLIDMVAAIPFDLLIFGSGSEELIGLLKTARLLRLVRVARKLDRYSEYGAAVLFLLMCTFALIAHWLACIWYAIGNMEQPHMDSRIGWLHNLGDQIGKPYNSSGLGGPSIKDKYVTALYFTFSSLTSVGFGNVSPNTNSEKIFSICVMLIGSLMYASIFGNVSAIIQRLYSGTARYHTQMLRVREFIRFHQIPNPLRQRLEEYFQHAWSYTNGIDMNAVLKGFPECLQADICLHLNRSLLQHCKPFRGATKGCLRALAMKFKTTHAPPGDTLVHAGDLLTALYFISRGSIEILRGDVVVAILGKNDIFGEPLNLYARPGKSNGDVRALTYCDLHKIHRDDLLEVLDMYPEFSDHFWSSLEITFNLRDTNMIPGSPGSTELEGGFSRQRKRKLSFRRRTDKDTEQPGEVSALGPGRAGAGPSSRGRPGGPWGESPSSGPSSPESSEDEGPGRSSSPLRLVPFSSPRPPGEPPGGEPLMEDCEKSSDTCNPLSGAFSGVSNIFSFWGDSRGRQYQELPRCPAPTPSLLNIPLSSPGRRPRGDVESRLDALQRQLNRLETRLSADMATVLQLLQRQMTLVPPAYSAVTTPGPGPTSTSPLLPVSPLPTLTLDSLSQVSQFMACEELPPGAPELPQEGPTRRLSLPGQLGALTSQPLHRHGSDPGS
On to `C#CCOCCOCCOCCNc1nc(N2CCN(C(=O)[C@H]([C@@H](C)CC)n3cc(CCCC[NH3+])nn3)CC2)nc(N2CCN(C(=O)[C@H](CCCC[NH3+])n3cc(CC(C)O)nn3)CC2)n1.[Cl-]` (some centres unmarked), for which the “hERG current change (%, negative = inhibition) at 10uM” value was found to be 14.3%.
To `CC(=O)c1ccc(OC(=O)COc2ccccc2Cl)cc1` belongs 20.4%.
With `Cc1ccccc1CN1CCCC(C(=O)Nc2ccc(-c3ccn[nH]3)cc2)C1` (centres unmarked), the “hERG current change (%, negative = inhibition) at 10uM” value is recorded as 8.89%.
With `CCOCCCn1c(=N)c(S(=O)(=O)c2ccccc2)cc2c(=O)n3cc(C)ccc3nc21` the figure was -19.1%; with `C=CCNC(=O)Nc1ccc(Cl)cn1`, -5.41%.
To `CCN1CCCc2cc(CN(CCN3CCOCC3)C(=S)Nc3cc(F)cc(F)c3)ccc21` belongs -1.04%.
To `CCc1cccc(OCCN2CCCC2)c1` belongs -12.7%.
Consider `C=CCn1c(COc2cccc3ccc(C)nc23)nnc1SCC(N)=O`, for which the “hERG current change (%, negative = inhibition) at 10uM” value is given as -0.0884%.
With `CC(=O)Nc1ccc(S(=O)(=O)N2CCCC3CCCCC32)cc1` (centres unmarked) the figure was -3.38%; with `COc1ccc(C(C)=O)cc1COC(=O)c1cc2ccccc2cc1O`, 9.93%; with `O=C1OCCC1Sc1nc(-c2ccccc2)cs1` (centres unmarked), -7.33%.
With `CC(Cl)C(=O)Nc1cc(C(C)(C)C)nn1-c1ccccc1` (centres unmarked) the figure was 26.7%; with `Cc1ccc(C(=O)N2CCN(c3ccc([N+](=O)[O-])cc3-n3cccc3)CC2)cc1`, -56.4%; with `Cc1ccc(C(=O)Nc2ccc3ncccc3c2)cc1`, -0.506%.
Consider `CN(C)CC1CCCCC1=O.Cl` (centres unmarked), for which the “hERG current change (%, negative = inhibition) at 10uM” value was 15.6%.
To `Cl.Cn1cccc1CNCc1ccccc1Cl` belongs 0.741%; to `CCCCNc1c(-c2cccc(-c3cc(C(C)=O)cs3)c2)nc2ccc(C)cn12.O=C(O)C(F)(F)F`, -8.02%; to `Oc1c(Br)cc(Br)cc1C=Nc1cccnc1`, -11.1%.
With `CCn1c(SCc2ccc(OC)c(F)c2)nc2ccccc2c1=O` the figure was 23.4%.
Consider `COc1cc(OC)c(C(=O)N2CCCC2)cc1OC`, for which the “hERG current change (%, negative = inhibition) at 10uM” value turned out to be 3.36%.
To `CC(C)Cc1ccc(C(C)C(=O)Nc2ccccc2O)cc1` (centres unmarked) belongs -5.17%; to `COc1ccccc1N1CC(C(=O)Nc2ccc3c(c2)OCO3)CC1=O` (centres unmarked), 13.6%; to `O=C1c2ccccc2NC(c2cccc(F)c2)N1Cc1ccccc1` (centres unmarked), -71.1%.
To `Cc1c(Cl)cccc1NC(=O)[C@@H](NC(=O)c1ccccc1Cl)C(C)C` belongs 11.7%.
With `CCOC(=O)c1cnc(-n2nc(C)cc2C)nc1N(C)C`, the “hERG current change (%, negative = inhibition) at 10uM” value was -4.36%.
With `CCOC(=O)N1CCN(C(=O)c2cccc(S(=O)(=O)Nc3ccc(OC)cc3)c2)CC1` the figure was -11.9%; with `O=C(CSc1c2c(nc3cc(Cl)ccc13)CCCC2)NCCN1CCOCC1`, 3.58%.
As for `COC(=O)CSc1nnc(SCc2ccc(Cl)cc2)s1`, the “hERG current change (%, negative = inhibition) at 10uM” value is -0.477%.
`CCN(CC)C(=O)CSc1nnc([C@@H](N)C(C)C)o1.Cl`: the “hERG current change (%, negative = inhibition) at 10uM” value amounted to 20.2%.
For `COc1ccccc1CNC(=O)CN(c1ccc(C)cc1)S(=O)(=O)c1c(C)n[nH]c1C`, the “hERG current change (%, negative = inhibition) at 10uM” value is -1.97%.
Consider `O=C(CCCC(=O)OCC(=O)NC1CCCC1)Nc1ccccn1`, for which the “hERG current change (%, negative = inhibition) at 10uM” value is listed as -10.9%.
With `O=C(O)CCCN1C(=O)NC2NC(=O)NC21` (centres unmarked) the figure was 6.07%; with `CCC(=O)N1CCc2cc(S(=O)(=O)N3CCN(c4cc(C)ccc4C)CC3)ccc21`, 9.5%.
To `O=C1c2ccccc2C(=O)N1CCSc1nncs1` belongs -6.79%.
With `Cc1ccc(-n2c(SCC(=O)NCC3CCCO3)nc3c(c2=O)SCC3)cc1` (centres unmarked) the figure was -28.8%.
Consider `Cc1ccc(NCc2nnc(SCC(=O)Nc3ccccc3)n2CC2CCCO2)c(C)c1` (centres unmarked), for which the “hERG current change (%, negative = inhibition) at 10uM” value is reported as -0.0882%.
With `Cc1ccc(NC(=O)CS(=O)CC(=O)NC2CCN(Cc3ccccc3)CC2)c(C)c1` (centres unmarked) the figure was -3.54%.
To `COc1ccc([N+](=O)[O-])c(OC)c1C(=O)NC(=O)Nc1nc(C)nc(C)n1` belongs -4.9%; to `CCOC(=O)C(Cc1ccc(O)cc1)NC(=O)CNC(=O)C1CCCN1C(=O)OC(C)(C)C` (stereo not drawn) (Boc-Pro-Gly-Tyr-OEt; configuration not given here), 21.5%.
With `C=CCSc1nc2sc3c(c2c(=O)[nH]1)CC(C)(CC)OC3` (centres unmarked) the figure was 19%; with `C/C(=N\NC(=O)C(N)=O)c1ccc(NC(=O)c2cccs2)cc1`, 23.1%; with `CCOCCCNC(=O)c1[nH]c(C)c(C(C)=O)c1C`, 12.2%.
For `CCOC(=O)c1nnn(-c2nn3nnnc3c3ccccc23)c1C`, the “hERG current change (%, negative = inhibition) at 10uM” value is on record as -11.5%.
To `O=C(Cc1ccccc1)N1CCc2[nH]nc(-c3ccccc3)c2C1` belongs -8.6%; to `Cc1ccc(NC(=O)COC(=O)Cc2csc(-c3ccc(Cl)cc3)n2)cc1C`, -18.3%.
To `COC(=O)[C@@H]1C[C@H]2CC[C@H](O)C[C@H]2N1Cc1ccc(C(F)(F)F)cc1` belongs 6.02%.
Turning to `O=C(COC(=O)CCC(=O)c1ccc(F)cc1)Nc1ccc2[nH]c(=O)[nH]c2c1`, the “hERG current change (%, negative = inhibition) at 10uM” value is -3.65%.
To `CC(=O)Nc1nnc(SCC(=O)Nc2ccc3c(c2)OCCO3)s1` belongs 13.3%.
With `O=c1c2ccccc2n2c(-c3ccc(C(F)(F)F)cc3)nnc2n1Cc1ccccc1` the figure was 0.707%; with `CCOC(=O)n1c(=O)n(Cc2cccc(C)c2)c2ccccc21`, -14%; with `O=C(CCn1c(=O)c2ccccc2n(Cc2ccccc2)c1=O)NCc1ccc2c(c1)OCO2`, -4.33%.
With `COc1cccc(/C=N/n2nnnc2N)c1OCc1ccccc1Cl` the figure was 0.0246%; with `CS(=O)(=O)N1CCN(C/C=C/c2ccccc2)CC1`, 7.98%.
With `CCOc1cc(/C=N/NC(=O)c2cccnc2)ccc1OC(=O)c1ccco1`, the “hERG current change (%, negative = inhibition) at 10uM” value was 25.4%.
With `O=C(Nc1ccc([N+](=O)[O-])cc1)c1ccc(S(=O)(=O)N2CCCC2)cc1` the figure was 13%.
To `C=CCN1C(=O)SC(Cc2cccc(OC)c2O)C1=O` (centres unmarked) belongs -2.93%; to `Cc1ccc(S(=O)(=O)N(C)C)cc1NC(=O)C1CCCCN1S(=O)(=O)c1ccccc1` (centres unmarked), -16.5%.
Turning to `O=S(=O)(Nc1ccc2c(c1)nc1n2CCN(Cc2ccccc2)C1)c1ccc(F)cc1`, the “hERG current change (%, negative = inhibition) at 10uM” value was -50.4%.
To `Cc1ccc(Nc2nnc(SCC3CCCCO3)s2)cc1` (centres unmarked) belongs -2.19%; to `CCn1cc(C(=O)Nc2ccc3c(c2)OCCO3)c2cc(OC)c(OC)cc2c1=O`, 8.76%; to `COc1cc(NC(=O)Cc2cccs2)c(C(=O)O)cc1OC`, 21.7%.
Take `CC1C(=O)Nc2ccccc2N1C(=O)c1ccc(Cl)c(Cl)c1` (centres unmarked): the “hERG current change (%, negative = inhibition) at 10uM” value worked out at 6.39%.
To `CC(Oc1ccccc1)C(=O)Nc1nc(-c2ccncc2)cs1` (centres unmarked) belongs 2.28%.
To `CCOC(=O)c1sc(Nc2nc3ccc(OC)cc3s2)cc1C` belongs -0.84%; to `CCOC(=O)C1C(=O)NCC1c1ccccc1` (centres unmarked), 7.58%; to `Cc1nnc(SCC(=O)N2CCCCC2)n1CC1CCCO1` (centres unmarked), 4.4%.
With `O=C(CCc1nc(-c2ccccc2F)no1)NCCN1CCOCC1` the figure was 6.22%.
As to `CCCCN(C(=O)Oc1ccccc1)C1CCS(=O)(=O)C1` (centres unmarked), the “hERG current change (%, negative = inhibition) at 10uM” value is recorded as -9.61%.
Turning to `CCN(CC)c1ccc(C=Nc2ccccc2)c(O)c1`, the “hERG current change (%, negative = inhibition) at 10uM” value is reported as 1.65%.
With `COc1ccc(CCNC(=O)CCS(=O)(=O)c2ccc(C)cc2)cc1OC` the figure was -15.2%.
With `CN(c1ccccc1)P(=O)(N(C)c1ccccc1)N(C)c1ccccc1` the figure was -37.1%.
With `O=C(Nc1ccccc1Cl)c1cccs1` the figure was -7.13%; with `CCOc1cc(/C=N\NC(=O)CC(=O)NCCc2ccccc2)ccc1O`, 1.94%.
Consider `COc1ccc2occ(NC(C)=O)c2c1`, for which the “hERG current change (%, negative = inhibition) at 10uM” value is -1.13%.
On to `Cn1c(=O)n(CC(=O)N2CCOCC2)c2ccccc21`, for which the “hERG current change (%, negative = inhibition) at 10uM” value amounted to 3.76%.
With `COc1cccc(/C=C(/C(=O)OCC(N)=O)c2ccccc2)c1` the figure was -21.8%; with `O=C(Nc1ccc(F)cc1)c1ccccc1CC[N+](=O)[O-]`, -0.239%; with `O=C(NCc1ccc(F)cc1)C1CCCN(C(=O)NCc2ccccc2)C1` (centres unmarked), -13%.
To `Cc1ncc(CC(=O)n2cc(C(=O)c3cc(Cl)ccc3O)cn2)s1` belongs -23.2%.
With `CN1CCN(C(=O)C2(NC(=O)Nc3cccc(F)c3)CCCCC2)CC1` the figure was -17.9%; with `CN(CC(=O)Nc1ccc(F)cc1)C(=O)CN1C(=O)c2ccccc2C1=O`, -18%.
Turning to `C/C(N)=C(/C#N)C(=O)CSc1nc2ccccc2c(=O)n1Cc1ccc(F)cc1`, the “hERG current change (%, negative = inhibition) at 10uM” value is 7.48%.
To `Cc1ccc(SC(C)c2nc(-c3ccccc3)no2)cc1` (centres unmarked) belongs 5.66%; to `COc1cccc(N2CCN(c3c(C#N)c(C(F)(F)F)nn3C)CC2)c1`, -12.6%; to `COc1cccc(/C=N/NC(=O)c2c(-c3ccccc3)noc2C)c1OC`, 11%.
In the case of `Cc1ccc(CNC(=O)Cn2ccc3cc(S(=O)(=O)N4CCCCCC4)ccc32)cc1`, the “hERG current change (%, negative = inhibition) at 10uM” value is given as 15.5%.
For the molecule `COc1ccc(S(=O)(=O)NNC(=O)c2csc(-n3nc(C)cc3C(F)(F)F)n2)cc1`, the “hERG current change (%, negative = inhibition) at 10uM” value is given as 19.9%.
As to `Cc1ccc(Nc2nnc(C)c3ccccc23)c(C)c1`, the “hERG current change (%, negative = inhibition) at 10uM” value was -16.4%.
With `CCN(CC)c1ccc(S(=O)(=O)Nc2cc(Cl)ccc2Cl)cc1NC(=S)NC(=O)C1CCCC1` the figure was 10.3%.

The values are drawn from PMC4336329 (PLoS ONE, 2015).
